Results published in the supplement of paper PMC12217912.
This is one part of the list. The full chains were built here from the parent and the listed change. Inactive controls read about 0.05.

B1: TEV protease; numbered along this chain (parent)
chain: MGESLFKGPRDYNPISSSICHLTNESDGHTTSLYGIGFGPFIITNKHLFRRNNGTLVVQSLHGVFKVKDTTTLQQHLVDGRDMIIIRMPKDFPPFPQKLKFREPQREERICLVTTNFQTKSMSSMVSDTSCTFPSGDGIFWKHWIQTKDGQCGSPLVSTRDGFIVGIHSASNFTNTNNYFTSVPKNFMELLTNQEAQQWVSGWRLNADSVLWGGHKVFMVKPEEPFQPVKEATQL

Variants of: B1
Assay: raw area under fraction-flipped curve 0-4 h after induction (AUC4h, not background-subtracted), DNA-recorder readout of cleavage of the substrate (dimensionless); higher = more cleavage of the substrate by the protease variant
Details: temperature: 34 °C; time window: 0-4 h after rhamnose induction
Description: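 In vivo DNA recorder in E. coli TOP10(DE3) ΔrhaA at 34 °C. Each TEVp single-site mutant (parent TEVp 0) is paired with a single-site variant of the 7-mer TEVs (canonical ENLYFQ|S). The substrate sits between flexible linkers in a Bxb1-sfGFP-TEVs-SsrA fusion, so cleavage stabilises Bxb1 and speeds flipping of a recombination array, read by NGS. The value is the raw area under the fraction-flipped curve over 0-4 h after rhamnose induction (AUC4h), with ≥20 reads per time point. It is not background-subtracted; inactive controls average about 0.047.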
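Note: Bxb1 expression induced with 0.2% (w/v) L-rhamnose at OD600 near 0.5, cultures sampled hourly, flipped fraction per protease–substrate barcode pair counted by paired-end Illumina sequencing.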

Row | Variant | area with substrate ENLYCQS | area with substrate ENLYEQS | area with substrate ENLYGQS | area with substrate ENLYHQS | area with substrate ENLYIQS | area with substrate ENLYKQS | area with substrate ENLYLQS | area with substrate ENLYMQS | area with substrate ENLYNQS | area with substrate ENLYPQS | area with substrate ENLYQQS | area with substrate ENLYRQS | area with substrate ENLYSQS | area with substrate ENLYTQS | area with substrate ENLYVQS | area with substrate ENLYWQS | area with substrate ENLYYQS | area with substrate ENLYDQS
1 | L48S | 0.0611 | 0.0642 | 0.0569 | 0.0518 | 0.0856 | 0.0353 | 0.0636 | 0.0577 | 0.068 | 0.0675 | 0.0738 | 0.0597 | 0.0628 | 0.0671 | 0.0692 | 0.0748 | 0.0617 | –
2 | S16Q | 0.0985 | 0.0847 | 0.0696 | 0.066 | 0.139 | 0.0567 | 0.0878 | 0.0934 | 0.0726 | 0.077 | 0.0515 | 0.0619 | 0.0691 | 0.0954 | 0.0935 | 0.0962 | 0.055 | 0.0606
3 | K120Y | 0.0769 | 0.0617 | 0.0614 | 0.0633 | 0.0913 | 0.0681 | – | 0.112 | 0.0646 | 0.0837 | 0.0686 | 0.0722 | 0.0633 | – | – | 0.0755 | 0.0754 | 0.0617
4 | N13T | 0.0991 | 0.0732 | 0.0632 | 0.0699 | 0.103 | 0.0201 | 0.0838 | 0.0774 | 0.0694 | 0.0692 | 0.0574 | 0.0672 | 0.0775 | 0.0949 | 0.136 | 0.0704 | 0.0551 | 0.0515
5 | P40T | 0.117 | 0.0631 | 0.059 | 0.0741 | 0.164 | 0.058 | – | – | 0.0694 | 0.0626 | 0.0501 | 0.0648 | 0.0735 | 0.0814 | 0.142 | 0.0852 | 0.0674 | –
6 | P14I | 0.0725 | 0.0638 | 0.0574 | 0.0651 | 0.114 | 0.0682 | – | 0.0731 | 0.0663 | 0.0673 | 0.0461 | 0.0613 | 0.0687 | 0.0417 | 0.101 | 0.0587 | – | 0.0612
7 | K216S | 0.0865 | 0.054 | – | 0.0643 | – | 0.0605 | – | – | 0.0717 | 0.0692 | 0.0575 | 0.0482 | 0.0651 | 0.0684 | – | 0.0686 | – | 0.0719
8 | M88E | 0.0561 | 0.0445 | – | 0.051 | 0.043 | 0.026 | 0.0398 | 0.0491 | 0.0391 | 0.0672 | 0.0589 | 0.0109 | 0.0595 | – | – | 0.0352 | – | 0.0376
9 | S16R | 0.0748 | 0.075 | 0.0565 | 0.0675 | 0.127 | 0.0529 | – | 0.0908 | 0.0767 | 0.102 | 0.0596 | 0.0528 | 0.0775 | 0.0813 | 0.132 | 0.0854 | 0.0675 | 0.0614
10 | K148A | 0.0914 | 0.0664 | 0.0654 | 0.0673 | 0.107 | 0.0601 | 0.0812 | 0.0855 | 0.0748 | 0.0741 | 0.056 | 0.0585 | 0.0776 | 0.0783 | 0.0935 | 0.093 | 0.0737 | 0.0576
11 | K120W | 0.0769 | – | 0.0635 | 0.0624 | 0.163 | – | – | 0.0715 | 0.0799 | 0.0741 | 0.0668 | 0.0719 | – | – | – | – | – | 0.0616
12 | W144H | 0.0513 | 0.0596 | 0.0663 | 0.0729 | 0.0657 | 0.0702 | – | 0.0889 | 0.062 | 0.0581 | – | 0.0602 | 0.0759 | 0.101 | 0.108 | 0.0754 | – | 0.0611
13 | P40H | 0.0908 | 0.0659 | 0.0632 | 0.068 | – | 0.0607 | – | 0.077 | 0.0779 | 0.0796 | 0.0666 | 0.0546 | 0.0786 | – | 0.115 | 0.0778 | – | 0.0868
14 | S16A | 0.0751 | 0.0668 | – | 0.0634 | 0.106 | 0.0685 | 0.101 | 0.0955 | 0.0707 | 0.0727 | – | 0.0758 | 0.088 | 0.0944 | 0.126 | 0.0843 | – | 0.0433
15 | C152I | 0.0581 | 0.0629 | 0.0626 | 0.0663 | 0.0546 | 0.0625 | – | 0.052 | 0.0619 | 0.0571 | – | 0.0581 | 0.05 | 0.0664 | 0.0586 | 0.0595 | 0.0571 | 0.0567
16 | G8P | 0.0898 | 0.0706 | 0.0683 | – | – | 0.0517 | 0.112 | – | 0.0993 | 0.0609 | 0.0934 | 0.0343 | 0.0674 | – | – | – | – | 0.059
17 | M88C | 0.0696 | 0.0638 | – | 0.0526 | – | – | – | – | – | 0.08 | 0.0405 | – | 0.0606 | – | – | 0.0513 | – | 0.0787
18 | D208Q | 0.0514 | 0.0648 | 0.059 | 0.0598 | 0.0934 | 0.0571 | – | – | – | 0.0602 | – | – | – | 0.0818 | – | 0.0325 | – | 0.0664
19 | C152G | 0.0578 | 0.0552 | 0.053 | 0.0582 | – | 0.0619 | – | 0.0578 | 0.0569 | 0.07 | 0.0676 | 0.0566 | 0.0554 | 0.0668 | 0.0504 | 0.0469 | 0.056 | 0.0629
20 | P40L | 0.079 | 0.0644 | – | 0.0607 | 0.117 | 0.073 | – | 0.0652 | 0.0509 | 0.0728 | 0.0563 | – | 0.0644 | – | – | – | 0.015 | 0.0647
21 | L48F | 0.0773 | 0.069 | 0.0699 | 0.0668 | – | 0.0474 | – | 0.081 | 0.0716 | 0.07 | – | 0.0642 | – | – | – | 0.0907 | 0.0459 | 0.0496
22 | W144K | 0.0733 | 0.0714 | – | – | 0.105 | – | – | – | 0.0559 | 0.0557 | 0.071 | – | 0.0671 | 0.0846 | 0.0888 | – | – | 0.0809
23 | S16H | 0.0875 | 0.0655 | 0.0565 | 0.0608 | 0.117 | 0.0595 | – | 0.107 | 0.0533 | 0.0595 | – | 0.0588 | – | 0.0763 | 0.114 | 0.0254 | 0.0755 | –
24 | L56P | 0.0508 | 0.0484 | 0.0497 | 0.0436 | 0.0407 | – | 0.0331 | 0.0416 | 0.0495 | 0.0542 | 0.0508 | 0.0509 | 0.0352 | 0.0286 | 0.0505 | 0.0558 | 0.0382 | 0.0523
25 | P184S | 0.0724 | 0.0709 | 0.054 | 0.0632 | 0.101 | 0.0643 | – | 0.0905 | 0.0647 | 0.0777 | 0.0641 | 0.0626 | 0.0644 | 0.0658 | 0.0886 | 0.0745 | 0.0559 | –
